Consider 94 molecules from PubChem BioAssay AID1508624 (National Center for Advancing Translational Sciences (NCATS), 2021).

Hit rate of the full screen: of about 48,000 compounds, about 120 (0.25%) were called active. Roughly 4% stayed inconclusive and do not appear here. Calls come from the whole dose curve; as a rule, active = well fitted activation curve with a large enough effect; inconclusive = small, poorly fitted or top-dose-only effect, or another doubt; inactive = no such curve, though single readings can be large or run the other way. This is one part of the list.

A short description of this test: Primary qHTS for Identification of Small Molecule Activators of Huntingtin-Antisense Promoter Activity. Note: nearly all actives have a fitted effect of over 55% in size. The settings on record: HEK293 HTT-AS promoter firefly luciferase reporter (activity 0% = vehicle and -100% = no light), 24 h; series mostly up to 57.5 µM; activity change, positive = activation: at the top concentration. A digest of the protocol: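 Firefly luciferase signal from promoter-reporter HEK293 cells was scaled between vehicle (0%) and zero RLU (-100%). Compounds were tested at final concentrations of up to 57.5 uM over 24 h at 37 degrees C. PTC124 at 50 uM final served as control inhibitor.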
For orientation: In qHTS, concentration-response curves come from the screen itself.
Regarding `COc1cccc(NC(=O)C2CCCN2S(=O)(=O)c2ccc3c(c2)n(C)c(=O)c(=O)n3C)c1` (centres undefined), the “activity change, positive = activation” value is inactive: -12.6%.
The same measure for `COc1ccc(OC)c(NC(=O)c2nc(SCc3ccccc3F)ncc2Cl)c1`: inactive: -1.61%; for `O=C(Cn1c(=O)oc2cc(S(=O)(=O)NCc3ccccc3)ccc21)N(CCO)Cc1ccccc1`: inactive: -17.8%; for `Cc1nc2c(C(=O)NCCC(C)C)cnn2c(C)c1Cc1c(F)cccc1Cl`: inactive: 9.25%.
To `COc1ccc2c(c1)c1c(c(=O)n(-c3ccc(C)cc3)c(=O)n1CC(=O)Nc1cc(C)ccc1C)n2C` belongs inactive: -14.9%; to `CCC(C)NC(=O)C1CCN(S(=O)(=O)c2ccc3c(ccn3CC)c2)CC1` (centres undefined), inactive: -13.7%; to `COc1cccc2sc(N(Cc3cccnc3)C(=O)c3ccc(S(=O)(=O)N(C)C)cc3)nc12`, inactive: -3.78%.
For the molecule `O=C(O)c1ccccc1NC(=O)N1c2ccccc2Sc2ccccc21`, the “activity change, positive = activation” value is inactive: -12.5%.
The same measure for `CCOC(=O)C1CCCN(C(=O)C2CCN(S(=O)(=O)c3c(C)noc3/C=C/c3ccc(C)cc3)CC2)C1` (centres undefined): inactive: -28.4%; for `COc1ccccc1CNC(=O)c1cc2cc(S(=O)(=O)N3CCCCC3)ccc2n1C`: inactive: -31.8%; for `CC1CCCN(Cc2c(O)ccc3c(=O)c(-c4ccc(Cl)cc4)c(C(F)(F)F)oc23)C1` (centres undefined): inactive: -6.31%.
To `COc1cc2c(cc1OC)C(c1cc(OC)c(O)c(OC)c1)CC(=O)N2` (centres undefined) belongs inactive: 0.0744%.
The same measure for `Cc1ccc(-c2c(C)n3c4c(=O)n(C)c(=O)n(C)c4nc3n2CCCO)cc1`: inactive: -61.8%; for `O=C(CSc1nc2c([nH]c3ccccc32)c(=O)n1-c1ccccc1)Nc1ccccc1F`: inactive: -25.6%.
With `O=C(CCn1cnnn1)Nc1ccccc1`, the “activity change, positive = activation” value was inactive: -3.39%.
The same measure for `COc1ccc(C(=O)Nc2cccc(-c3nc4cccnc4s3)c2C)c(OC)c1`: inactive: -11.1%.
To `CCOC(=O)c1ccccc1NC(=O)Cn1c(=O)n(Cc2ccc(C(=O)NCc3ccc4c(c3)OCO4)cc2)c(=O)c2ccccc21` belongs inactive: -2.08%.
The same measure for `CCOc1ccc(NC(=O)C2CCCN(S(=O)(=O)c3ccc(Br)s3)C2)cc1` (centres undefined): inactive: -9.24%; for `Cc1cccc(C(=O)NC(=O)Nc2ccc(-n3nc(C(F)(F)F)cc3C(F)(F)F)cc2)c1`: inactive: -11.6%; for `COCCCNC(=O)C1CCN(c2ncnc3c2nc2n3CCCCC2)CC1`: inactive: -8.68%.
Consider `CCOc1cc(Br)c(C2C(C(=O)OC)=C(C)NC3=C2C(=O)c2ccccc23)cc1OCC` (centres undefined), for which the “activity change, positive = activation” value is inactive: -23.4%.
The same measure for `Cc1c2cnn(CC(=O)NCc3ccc(F)cc3)c(=O)c2c(C)n1Cc1ccccc1Cl`: inactive: -21.6%; for `COc1ccc(-c2nc(C)c(CCNC(=O)c3ccccc3Br)s2)cc1OC`: inactive: 7.76%.
With `COc1cccc(Cn2cnc3c2c(=O)n(C)c(=O)n3C)c1`, the “activity change, positive = activation” value is inactive: -51%.
To `CC(=O)N1CCCc2cc(S(=O)(=O)N3CCC(N(C)C(C)C)CC3)ccc21` belongs inactive: -4.57%; to `COC(=O)c1ccccc1NC(=O)N(Cc1ccc(C)cc1)Cc1cccn1-c1nnc(N2CCCC2=O)s1`, inactive: -13.7%; to `CCOC(=O)c1[nH]c(C)c(CCC(=O)NCc2ccc(OC(C)C)cc2)c1C`, inactive: -31.1%.
With `Cc1ccc(CNS(=O)(=O)c2c(C(=O)N3CCC(C)CC3)c(C)n(C)c2C)cc1`, the “activity change, positive = activation” value was inactive: -10.4%.
As to `COc1ccc(C)cc1NC(=O)C1CCN(S(=O)(=O)c2cccc3nonc23)CC1`, the “activity change, positive = activation” value was inactive: -19.5%.
To `Cc1cc(Nc2cccc(O)c2)c2cccc(Br)c2n1` belongs inactive: -4.51%; to `Cc1sc2ncn(CC(=O)Nc3ccc(C(F)(F)F)cc3)c(=O)c2c1S(=O)(=O)N1CCN(C)CC1`, inactive: -19.6%; to `Cc1cccc(NC(=O)CSc2nnc3c4ccccc4n(C)c3n2)c1`, inactive: -14%.
The same measure for `CCc1ccc(S(=O)(=O)c2cn(CC(=O)Nc3cccc(C)c3)c3ccc(Cl)cc3c2=O)cc1`: inactive: -5.61%.
In the case of `Cc1cc(C)cc(N2C(=O)CS(=O)(=O)C23C(=O)N(Cc2ccccc2)c2ccccc23)c1` (centres undefined), the “activity change, positive = activation” value was inactive: -28.9%.
To `CC(C)(O)c1ccccc1CC[C@@H](SCC1(CC(=O)O)CC1)c1cccc(/C=C/c2ccc3ccc(Cl)cc3n2)c1` belongs inactive: 14%; to `Cc1cc(OCC(=O)Nc2ncn[nH]2)c(C)c(C)c1Br`, inactive: -1.13%.
For `COc1nnc(-c2ccc(N3CCCCC3)c(NC(=O)c3ccc(Cl)cc3)c2)c2ccccc12`, the “activity change, positive = activation” value was inactive: -26.4%.
The same measure for `COc1ccc(-c2cc(C(F)(F)F)nc(SCC(=O)Nc3ccc(C(C)=O)cc3)n2)cc1`: inactive: -41.6%; for `CCOC(=O)C1CCN(c2ncnc3c2c(-c2ccccc2)cn3-c2ccc(C)c(Cl)c2)CC1`: inactive: -5.24%.
With `CCc1cc(=O)[nH]c(SCc2nc(-c3ccccc3C)no2)n1`, the “activity change, positive = activation” value was inactive: -18.3%.
The same measure for `COc1ccc(OC)c(NC(=O)c2nc(SCc3ccc(F)cc3)ncc2Cl)c1`: inactive: -10.3%; for `O=C1NC(=O)C(c2ccccc2)(c2ccccc2)N1`: inactive: -14.7%.
Turning to `O=C(NCCc1csc(-c2ccc(F)cc2)n1)C(=O)Nc1ccc(Cl)cc1`, the “activity change, positive = activation” value was inactive: 4%.
The same measure for `CCC(=O)N1c2ccc(S(=O)(=O)NCCc3ccccc3)cc2CC1C` (centres undefined): inactive: -25.8%; for `O=C(/C=C/c1cn(CC(O)CN2CCc3ccccc32)c2ccccc12)c1ccc(Br)cc1` (centres undefined): inactive: -19.8%.
In the case of `Cc1cccc(-n2c(-c3ccco3)nc3c(cnn3-c3ccc(F)cc3)c2=O)c1`, the “activity change, positive = activation” value is inactive: -39.1%.
As for `Cc1ccc(-n2cnc3cc(C(=O)NC4CCCCCC4)ccc32)cc1Cl`, the “activity change, positive = activation” value was inactive: -35.2%.
`COC(=O)c1c(C)sc(-c2c(-c3ccc4c(c3)OCCO4)[nH]c3c2c(=O)[nH]c(=O)n3C)c1O`: the “activity change, positive = activation” value is inactive: -27.4%.
To `O=C(O)CO.[NH2-].[NH2-].[Pt+2]` belongs inactive: -6.56%; to `COc1ccc(-c2nn(C)c3sc(C(=O)N4CCN(c5cccc(Cl)c5)CC4)cc23)cc1OC`, inactive: -13.5%; to `COc1ccc(NC(=O)C2CCN(S(=O)(=O)c3c(C)noc3/C=C/c3ccc(C)cc3)CC2)cc1Cl`, inactive: -6.9%.
The same measure for `Cc1c(CNCCCc2ccccc2)c(C(=O)O)c(C)n1Cc1cccc(Cl)c1`: inactive: -18.1%.
`Cc1ccc(C)c(NC(=O)Nc2csc3c2CCCC3)c1`: the “activity change, positive = activation” value is inactive: -17.6%.
As to `CC(C)NC(=O)C1CCN(C(=O)N2CC(C)Oc3ccccc32)CC1` (centres undefined), the “activity change, positive = activation” value was inactive: -2.61%.
`COc1ccccc1[C@H](c1cccc2ccccc12)[C@@](C)(C#N)C(=O)N1CCC(c2cccc(C(F)(F)F)c2)CC1`: the “activity change, positive = activation” value is inactive: -11.3%.
In the case of `COc1ccccc1NC(=O)Cn1c(=O)n(Cc2nc(-c3ccccc3)no2)c(=O)c2ccccc21`, the “activity change, positive = activation” value was inactive: -16%.
For `CCC1=C(c2ccc(C)cc2)S(=O)(=O)N=C1N1CCC(C(=O)N2CCCCC2)CC1`, the “activity change, positive = activation” value is inactive: -13.5%.
Take `CCS(=O)(=O)NCCc1csc2nc(-c3ccc(C)cc3)nn12`: the “activity change, positive = activation” value was inactive: -16%.
As to `O=C(COCc1cc(-c2cccs2)on1)Nc1cccc(O)c1`, the “activity change, positive = activation” value was inactive: -0.981%.
The same measure for `COc1ccc(NC(=O)Cn2cc(C(=O)c3cccs3)c3ccccc32)cc1`: inactive: -17.7%; for `CCN(Cc1ccccc1)S(=O)(=O)c1ccc2[nH]c3c(c2c1)CCCCC3`: inactive: -33.1%.
For `CN(Cc1ccccc1)c1ccc(-c2nc(-c3cccnc3)no2)cc1[N+](=O)[O-]`, the “activity change, positive = activation” value is inactive: -6.76%.
Regarding `CCOC(=O)c1cccc(NC(=O)c2nn(-c3ccc(OC)cc3)c(=O)c3c2c2ccccc2n3C)c1`, the “activity change, positive = activation” value was inactive: -1.88%.
On to `Cc1c(C(=O)OCCOc2ccccc2)[nH]c2c1C(=O)CC(c1ccccc1Cl)C2` (centres undefined), for which the “activity change, positive = activation” value is inactive: -58.2%.
To `CCC(C(=O)NCCc1cc(OC)ccc1OC)n1nc(C)c2sc3ccccc3c2c1=O` (centres undefined) belongs inactive: -39.4%; to `Cc1cc(-c2nc3ncccc3o2)ccc1NC(=O)COc1cc(C)c(Cl)c(C)c1`, inactive: -18.1%.
The same measure for `CN(C)c1ccc(CNC(=O)c2cccn2-c2nnc(N3CCCCC3)s2)cc1`: inactive: -18.9%.
The same measure for `CCOC(=O)c1cnc2nc(NCc3ccc(OCC)cc3)[nH]n2c1=O`: inactive: -6.31%; for `Cc1ccc(C)c(NC(=O)CSc2nc(-c3ccccc3Cl)nc3c2Cc2c(CO)cnc(C)c2O3)c1`: inactive: -16.3%.
For `CCCCOc1ccc(C(=O)NCCc2csc(-c3ccc(OC)cc3)n2)cc1`, the “activity change, positive = activation” value was inactive: -39.8%.
For `O=C(NCc1ccc(F)cc1)C(=O)NCC(c1cccs1)S(=O)(=O)c1cccs1` (centres undefined), the “activity change, positive = activation” value is inactive: -24.9%.
`COc1ccc(S(=O)(=O)c2cn(C)c3cc(N4CCOCC4)c(F)cc3c2=O)cc1`: the “activity change, positive = activation” value is inactive: -12.4%.
Take `Cc1ccc(NS(=O)(=O)c2ccc3[nH]c4c(c3c2)CCCCC4)cc1`: the “activity change, positive = activation” value is inactive: -32.4%.
The same measure for `Cc1ccc(OCc2cc(=O)n3cc(C)sc3n2)c(C)c1`: inactive: -4.99%.
The same measure for `CC(=O)N1CCc2cc(S(=O)(=O)N3CCN(c4ccc(C)cc4)C(C)C3)ccc21` (centres undefined): inactive: -50.2%; for `CCc1ccc(OCC(=O)Nc2ccc3oc(-c4ccc(OC)cc4)nc3c2)cc1`: inactive: 17.7%.
To `O=C(COc1ccccc1)Nc1c(Cl)ccc2nsnc12` belongs inactive: -22.6%.
Regarding `COC(=O)CC1Oc2ccc(Cl)cc2-n2cc(-c3ccc(F)cc3)nc21` (centres undefined), the “activity change, positive = activation” value was inactive: -9.87%.
To `CCCCCCCCCCCC(CC1OC(=O)C1CCCCCC)OC(=O)C(CC(C)C)NC=O` (centres undefined) belongs inactive: -15.5%; to `Cc1ccc(C)c(N(C)S(=O)(=O)c2ccc3[nH]cc(C(=O)NC4CCCC4)c(=O)c3c2)c1`, inactive: -43.7%; to `CCOc1ccc(S(=O)(=O)NCC(c2cccs2)S(=O)(=O)c2ccc(C)cc2)cc1` (centres undefined), inactive: -9.56%.
To `CCN1CCN(C(=O)c2c(C)nn(-c3ccc(F)cc3)c2-n2cccc2)CC1` belongs inactive: 12.4%; to `CC(=O)Oc1cccc(C)c1`, inactive: 0.423%; to `CC(C)Oc1ccc(CNC(=O)c2ccccc2NC(=O)c2nsc3ccccc23)cc1`, inactive: -3.3%.
The same measure for `CNS(=O)(=O)c1cn(CC(=O)N2CCN(c3cccc(Cl)c3)CC2)cc1S(=O)(=O)NC`: inactive: -11.2%; for `O=C(CCCCn1c(=O)c2ccccc2n(Cc2ccccc2F)c1=O)NCc1ccccc1Cl`: inactive: -6.51%.
Turning to `Cc1ccc(NC(=O)CSc2nc3ccc(NC(=O)CCc4ccccc4)cc3s2)c(C)c1`, the “activity change, positive = activation” value is inactive: -6.83%.
To `O=S(=O)(NCCc1nnc2ccc(SCc3c(F)cccc3Cl)nn12)c1ccccc1` belongs inactive: -31.6%; to `COC(=O)c1ccc(CN(Cc2ccc(OC)c(OC)c2)S(=O)(=O)c2cc(C(=O)Nc3cccc(C)c3)ccc2F)cc1`, inactive: -2.67%.
For `CCCCC(C=O)NC(=O)C(CC(C)C)NC(=O)OCc1ccccc1` (centres undefined), the “activity change, positive = activation” value is inactive: -21.3%.
Regarding `Cc1oc(-c2ccccc2F)nc1CSCC(=O)NCCc1ccccc1`, the “activity change, positive = activation” value was inactive: -22.8%.
As to `CCC(Oc1ccccc1)C(=O)Nc1ccc(OCc2cc(=O)n3ccc(C)cc3n2)cc1` (centres undefined), the “activity change, positive = activation” value is inactive: -6.98%.
To `COc1ccccc1CNC(=O)c1ccc2c(c1)N(Cc1ccc(C)cc1)CCS2` belongs inactive: -13.6%; to `CCc1ccccc1NC(=O)CN1C(=O)COc2ccc(S(=O)(=O)N3CCCCCC3)cc21`, inactive: -8.98%.
